Laboratory results as given in a collection of fitness landscapes (doi:10.1016/j.celrep.2020.107928).
In all, about 81,000 sequences were measured (“one-hybrid fitness for binding NBS DNA”: median about -0.1, highest 2% from about 0.36 on). Some of the results follow.

B1: Caulobacter ParB omega fusion; a variant is named by its letters at X, in order, B8GW30 (parent)
chain: MESVVVGEPGMSEGRRGLGRGLSALLGEVDAAPAQAPGEQLGGSREAPIEILQRNPDQPRRTFREEDLEDLSNSIREKGVLQPILVRPSPDTAGEYQIVAGERAWRAAQRAGLKTVPIMVRELDDLAVLEIGIIENVQRADLNVLEEALSYKVLMEKFERTQENIAQTIGKSXSHVANXMRLLXLPDEVQSYLVSGELTAXHARAIAAAADPVALAKQIIEGGLSVRETEALARKAPNLSAGKSKGGRPPRVKDTDTQALESDLSSVLGLDVSIDHRGSTGTLTITYATLEQLDDLCNRLTRGI

Variants of: B1
Assay: one-hybrid fitness for binding NBS DNA (the Noc-binding site; scaled: cognate 1, non-cognate 0); higher = stronger binding
Conditions: with NBS DNA site
Method in brief: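 Caulobacter ParB libraries with four specificity codons randomised were screened by bacterial one-hybrid selection in the E. coli USO strain, using a HIS3 reporter whose site lies 19 bp from the promoter. Selection ran for 48 hours at 37°C on M9 lacking histidine, with 0.1 mM IPTG and 5 mM 3-AT. Plasmids were Illumina-sequenced before and after selection, three replicate libraries were pooled, and variants with under 10 reads were dropped. Fitness is the log change in each variant's read ratio to wild type, rescaled against the cognate and non-cognate sites.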

one-hybrid fitness for binding NBS DNA, 0.491:
RTMT

one-hybrid fitness for binding NBS DNA, 0.266:
RLLS

one-hybrid fitness for binding NBS DNA, 0.215:
KSKT

one-hybrid fitness for binding NBS DNA, 0.326:
RHKH

one-hybrid fitness for binding NBS DNA, 0.264:
YVPR

one-hybrid fitness for binding NBS DNA, 0.371:
RRDH

one-hybrid fitness for binding NBS DNA, 0.519:
RYNR

one-hybrid fitness for binding NBS DNA, 0.378:
RRTY

one-hybrid fitness for binding NBS DNA, 0.218:
QRVK

one-hybrid fitness for binding NBS DNA, 0.381:
QRNG

one-hybrid fitness for binding NBS DNA, 0.366:
QRSC

one-hybrid fitness for binding NBS DNA, 0.276:
QIRM

one-hybrid fitness for binding NBS DNA, ≤ 0.2:
TPPD
NTDS
SIVS
AALT
CDAT
EHNR
DIHC
TVLN
ATYY
PPES
QPHL
HDER
AKML
IHYG
LIYS
RYIW
QNHV
RVYN
NDLS
WIYG
AVPH
FTHE
YKVG
HQKR
QALC
TDSE
YASF
HRCN
CAHY
NRCK
CPTI
GNHE
NSQI
LVCS
CRYT
MQES
PWYP
LVHV
PYHT
DPMR
AGNP
ITPA
AGSI
MFLS
FVNW
SRNI
AITI
YDKR
SHIS
KRII
TFFR
VLIY
DCLS
ALGN
DSLD
TLHP
VPVQ
LNIG
LAES
VHAN
GYQN
TLGL
TGGK
PTIG
QYLP
HPSR
PKEV
RDTT
RPDK
QYHM
CACS
QAVL
SNPE
MSVF
ATSI
WQSY
MAQT
LKVT
MNYG
CPSW
QWVC
EERG
IMIV
DRGN
KREI
NLSD
CTYL
TTNL
YKDD
VEAS
MHQR
PAEG
CSRT
PLHK
RYSC
ATLC
DQKR
WVHR
WTCR
FLPQ
PGFV
CYAV
KMPL
TCKH
LPVN
AANR
ITAR
DEFG
DEYC
KLWS
LCSS
RNQQ
WKRS
FRHV
NYIR
DELR
AAIV
YTSW
GHRV
KCAG
SVMC
QVQG
IDTL
ILVR
SRNG
HQEA
IPIS
IQFM
DLKL
IGDN
ARWW
PLWV
RHYC
HKLT
SGKC
MNHS
MSHI
WCDT
VNGN
AKHR
ILPG
NYAR
NDTS
SQDF
RYHA
HMVC
SPVV
QWHV
MNQR
TLGT
KFPG
AISE
GLLH
CRLL
MYTR
FWRW
GVYR
CTNG
HWEI
TSSC
IGHC
TNMV
VSPT
HDDG
SIWA
TESL
GCKP
SNPM
LRTA
SAFT
PLQS
SWGR
MRGG
EFAT
QASC
KCSL
SRTH
CMTT
PGME
ISRH
PMTS
AHML

one-hybrid fitness for binding NBS DNA, 0.222:
QCQH
